The results in this text go back to PMC4336329 (PLoS ONE, 2015).

The campaign covered roughly 310,000 compounds. About 2,200 (0.71%) showed an effect of 50% or more. Effects have a minus sign here. Some of the results follow.

Sequence of human ether-à-go-go-related gene (hERG) potassium channel (Q12809 whole entry, looked up): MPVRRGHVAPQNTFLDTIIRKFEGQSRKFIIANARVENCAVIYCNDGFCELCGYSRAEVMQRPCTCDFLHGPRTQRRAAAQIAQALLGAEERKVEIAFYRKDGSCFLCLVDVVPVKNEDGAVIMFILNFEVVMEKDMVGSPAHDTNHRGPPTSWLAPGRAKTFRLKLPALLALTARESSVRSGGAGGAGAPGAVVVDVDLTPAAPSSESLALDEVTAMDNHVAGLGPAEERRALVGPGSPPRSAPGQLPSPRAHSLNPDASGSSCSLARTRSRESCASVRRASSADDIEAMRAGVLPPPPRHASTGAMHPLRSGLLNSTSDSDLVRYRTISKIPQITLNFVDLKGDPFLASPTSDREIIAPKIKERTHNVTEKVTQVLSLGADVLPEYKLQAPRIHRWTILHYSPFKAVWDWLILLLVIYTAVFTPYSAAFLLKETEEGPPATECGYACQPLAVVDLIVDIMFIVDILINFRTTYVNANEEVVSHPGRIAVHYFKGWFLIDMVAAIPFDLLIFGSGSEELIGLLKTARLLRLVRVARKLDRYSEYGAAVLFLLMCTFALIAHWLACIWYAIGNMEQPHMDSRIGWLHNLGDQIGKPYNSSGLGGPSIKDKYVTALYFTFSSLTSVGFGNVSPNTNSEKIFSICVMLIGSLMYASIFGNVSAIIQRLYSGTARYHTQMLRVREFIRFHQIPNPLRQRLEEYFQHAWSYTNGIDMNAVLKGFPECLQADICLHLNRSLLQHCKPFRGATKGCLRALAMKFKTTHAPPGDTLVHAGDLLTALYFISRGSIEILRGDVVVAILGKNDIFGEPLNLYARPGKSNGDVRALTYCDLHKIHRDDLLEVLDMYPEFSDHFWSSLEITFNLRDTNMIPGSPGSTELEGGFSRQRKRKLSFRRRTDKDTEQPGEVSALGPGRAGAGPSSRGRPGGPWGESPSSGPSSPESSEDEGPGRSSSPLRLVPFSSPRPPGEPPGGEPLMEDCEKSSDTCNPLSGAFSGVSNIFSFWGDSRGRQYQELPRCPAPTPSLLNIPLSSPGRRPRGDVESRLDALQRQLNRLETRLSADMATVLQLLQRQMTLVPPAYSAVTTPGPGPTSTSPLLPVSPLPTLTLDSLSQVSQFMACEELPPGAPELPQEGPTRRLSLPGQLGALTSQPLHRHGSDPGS

This experiment addresses human ether-à-go-go-related gene (hERG) potassium channel (human, UniProt Q12809). Put plainly: primary screen, population patch clamp on CHO cells stably expressing hERG.
Take `COc1ccccc1-c1n[nH]c(=S)n1-c1ccccc1`: the “hERG current change (%, negative = inhibition) at 1uM” value came to 9.58%.

Consider `NNc1nc2sc3c(c2c(=O)n1C1CCCCC1)CCN(Cc1ccccc1)C3`, for which the “hERG current change (%, negative = inhibition) at 1uM” value is recorded as 11.9%.

On to `CC(C)c1ccc(NC(=O)COC(=O)CSc2nnc(N)s2)cc1`, for which the “hERG current change (%, negative = inhibition) at 1uM” value was 14.1%.

Turning to `COc1ccc(CCNC(=O)CN2C(=O)NC(C)(c3ccc([N+](=O)[O-])cc3)C2=O)cc1` (stereo not drawn), the “hERG current change (%, negative = inhibition) at 1uM” value is listed as -13.3%.

As for `O=P(OC1CCCCC1)(OC1CCCCC1)C(O)c1c(Cl)cccc1Cl` (stereo not drawn), the “hERG current change (%, negative = inhibition) at 1uM” value was determined as 1.86%.

For `COc1cccc(-n2cc(C(=O)NCCCOC(C)C)c3ccccc3c2=O)c1`, the “hERG current change (%, negative = inhibition) at 1uM” value came out at 13%.

For the molecule `Cc1n[nH]c(C)c1C(=O)CC1(O)C(=O)N(Cc2ccccc2)c2ccc(Br)cc21` (stereo not drawn), the “hERG current change (%, negative = inhibition) at 1uM” value was 10.8%.

For the molecule `COc1ccc(S(=O)(=O)N2CCCC(C(=O)NCCC(C)C)C2)cc1` (stereo not drawn), the “hERG current change (%, negative = inhibition) at 1uM” value turned out to be 8.25%.

For the molecule `CC(=O)c1cccc(NC(=O)C(C)OC(=O)c2cc(=O)[nH]c3ccccc23)c1` (stereo not drawn), the “hERG current change (%, negative = inhibition) at 1uM” value is 5.09%.

For the molecule `Cc1c(-c2n[nH]c(=S)n2-c2ccc(C(F)(F)F)cc2)nnn1-c1ccccc1`, the “hERG current change (%, negative = inhibition) at 1uM” value worked out at 21.7%.

Consider `COc1ccc(CCN(C)CCC(=O)Nc2ccc(C)cc2)cc1OC.Cl`, for which the “hERG current change (%, negative = inhibition) at 1uM” value is -35.9%.

For the molecule `Cc1nn(-c2ccccc2)c(C)c1/C=C/C(=O)OC(C)C(N)=O` (stereo not drawn), the “hERG current change (%, negative = inhibition) at 1uM” value stood at 7.39%.

Consider `O=C(O)CSc1ccccc1C(=O)O`, for which the “hERG current change (%, negative = inhibition) at 1uM” value came to 1.54%.

For `COc1ccc(CC(=O)NC(C)c2nnc(SCC(=O)c3ccc(Br)cc3)n2C)cc1` (stereo not drawn), the “hERG current change (%, negative = inhibition) at 1uM” value came to 1.07%.

On to `CC(C)c1ccccc1OS(N)(=O)=O`, for which the “hERG current change (%, negative = inhibition) at 1uM” value is on record as 4.02%.

`C=CCn1c(SCC(=O)N2CC(=O)Nc3ccccc32)nc2scc(-c3ccccc3)c2c1=O`: the “hERG current change (%, negative = inhibition) at 1uM” value is 8.29%.

On to `Cc1ccc(C(=O)NCCCN2CCOCC2)cc1`, for which the “hERG current change (%, negative = inhibition) at 1uM” value stood at 9.79%.

As to `COc1ccc(S(=O)(=O)N2CCC(NC(=O)C(Cc3cccc(OC)c3OC)NC(C)=O)CC2)cc1` (stereo not drawn), the “hERG current change (%, negative = inhibition) at 1uM” value is 13%.

As for `CCOC(=S)SCc1cn2ccc(C)cc2n1`, the “hERG current change (%, negative = inhibition) at 1uM” value is -0.643%.

Turning to `Cc1cccc(N(CC(=O)N2CCCCCC2)S(C)(=O)=O)c1`, the “hERG current change (%, negative = inhibition) at 1uM” value was determined as 15.2%.

In the case of `COc1cc2c(C#N)c(N3CCN(C)CC3)nc(N)c2c(N)n1`, the “hERG current change (%, negative = inhibition) at 1uM” value was 5.12%.

For `Cc1ccccc1-c1nc2c(s1)CCc1onc(-c3ccc(Cl)cc3)c1-2`, the “hERG current change (%, negative = inhibition) at 1uM” value worked out at 14.4%.

On to `CCOC(=O)c1c(C)[nH]c(C)c1S(=O)(=O)NCCc1sccc1C`, for which the “hERG current change (%, negative = inhibition) at 1uM” value turned out to be 20.2%.

Take `COc1ccc(C(NC(=O)C(C)C)c2c(O)ccc3ccccc23)cc1OC` (stereo not drawn): the “hERG current change (%, negative = inhibition) at 1uM” value is reported as 7.99%.

On to `COc1ccccc1N1CCN(c2ncnc3sc(C(=O)NCC4CCCO4)c(C)c23)CC1` (stereo not drawn), for which the “hERG current change (%, negative = inhibition) at 1uM” value is reported as 17.1%.

`COC(=O)c1c(NC(=O)C(=O)NCCCN2CCOCC2)sc2c1CCC2`: the “hERG current change (%, negative = inhibition) at 1uM” value is reported as 20.6%.

As for `c1ccc(Cn2nnc3c(N4CCc5ccccc54)ncnc32)cc1`, the “hERG current change (%, negative = inhibition) at 1uM” value is on record as 9.78%.

Regarding `CC(=O)N1c2ccc(S(=O)(=O)N3CCCCC3)cc2CC1C(=O)Nc1ccc(C)cc1` (stereo not drawn), the “hERG current change (%, negative = inhibition) at 1uM” value is listed as 6.92%.

For `CCOc1ccc(-c2c(C(=O)N/N=C(\C)c3ccncc3)nnn2-c2nonc2N)cc1`, the “hERG current change (%, negative = inhibition) at 1uM” value turned out to be 9.33%.

For the molecule `Cc1ccc(C2N3CC4([N+](=O)[O-])CN2CC([N+](=O)[O-])(C3)C4(C)C)cc1` (stereo not drawn), the “hERG current change (%, negative = inhibition) at 1uM” value came to 8.44%.

Take `O=C(O)c1ccccc1OCc1ccccc1Cl`: the “hERG current change (%, negative = inhibition) at 1uM” value came to 10.8%.

Take `Cc1cccc(NC(=O)c2ccc(S(=O)(=O)N3CC(C)OC(C)C3)cc2)n1` (stereo not drawn): the “hERG current change (%, negative = inhibition) at 1uM” value was found to be 7.27%.

As for `CCN(CC)c1ncnc2scc(C3COc4ccccc4O3)c12` (stereo not drawn), the “hERG current change (%, negative = inhibition) at 1uM” value turned out to be 8.61%.

Consider `CCn1c(=O)n(CC)c2cc(NS(=O)(=O)c3ccccc3)ccc21`, for which the “hERG current change (%, negative = inhibition) at 1uM” value was -2.94%.

As for `Cc1ccc(-c2csc3ncnc(Cl)c23)cc1`, the “hERG current change (%, negative = inhibition) at 1uM” value came to 7.18%.

`CCCOc1ccc(N/C=C/C(=O)C(C)(C)C)cc1`: the “hERG current change (%, negative = inhibition) at 1uM” value is listed as 19.8%.

Turning to `CC(C)(C)C(=O)/C(C#N)=C/c1ccc(O)cc1`, the “hERG current change (%, negative = inhibition) at 1uM” value worked out at 15.2%.

In the case of `Cc1cccc(N2CCN(C(=O)C3CCCCC3)CC2)c1C`, the “hERG current change (%, negative = inhibition) at 1uM” value is -2.42%.

As to `CC(C)(C)NC(=O)c1ccc2nsnc2c1`, the “hERG current change (%, negative = inhibition) at 1uM” value came out at 6.08%.

As for `O=C(NCC1CCCO1)C1CCN(C2CCN(C(=O)C3CCCCC3)CC2)CC1` (stereo not drawn), the “hERG current change (%, negative = inhibition) at 1uM” value came out at 16%.

Regarding `Cc1cccc(OCC(=O)Nc2cc(S(=O)(=O)N3CCOCC3)ccc2N2CCCC2)c1C`, the “hERG current change (%, negative = inhibition) at 1uM” value was found to be 22.3%.

Take `Fc1ccc(CN2CCCN(C(=S)Nc3ccc(F)cc3)CC2)cc1`: the “hERG current change (%, negative = inhibition) at 1uM” value was found to be 2.05%.

As to `CCOc1ccc(NC(=O)CN(C)S(=O)(=O)c2cccs2)cc1`, the “hERG current change (%, negative = inhibition) at 1uM” value turned out to be 8.98%.

On to `COc1ccc(C2OC(=O)CC2C(=O)NCc2ccc(Cl)cc2)cc1OC` (stereo not drawn), for which the “hERG current change (%, negative = inhibition) at 1uM” value is 6.73%.

In the case of `Cc1nc(NCc2ccc(S(N)(=O)=O)cc2)c2c(C)c(C)sc2n1`, the “hERG current change (%, negative = inhibition) at 1uM” value was -1.15%.

For the molecule `COc1ccc(NC(=O)CSc2nc(N)cc(N)n2)cc1S(=O)(=O)N1CCCCC1`, the “hERG current change (%, negative = inhibition) at 1uM” value is 10.4%.

On to `COc1cc2c(cc1OC)CN(C(=O)CN1C(=O)NC3(CCC(C)CC3)C1=O)CC2` (stereo not drawn), for which the “hERG current change (%, negative = inhibition) at 1uM” value came to 14.9%.

`Cc1cc(C)c2c(N)c(C(=O)NNC(=O)c3ccccc3)sc2n1`: the “hERG current change (%, negative = inhibition) at 1uM” value was determined as 12.8%.

Take `Fc1ccccc1Cn1cc(C(=S)N2CCOCC2)c2ccccc21`: the “hERG current change (%, negative = inhibition) at 1uM” value was 12%.

For the molecule `O=c1cc(CO)oc(C(Nc2ccccn2)c2ccsc2)c1O` (stereo not drawn), the “hERG current change (%, negative = inhibition) at 1uM” value is on record as 12.4%.

In the case of `O=C(N/N=C/c1cccs1)c1n[nH]c2c1CCC2`, the “hERG current change (%, negative = inhibition) at 1uM” value worked out at 20.1%.

Turning to `COc1ccc(Cl)cc1NC(=O)c1oc(C)nc1C`, the “hERG current change (%, negative = inhibition) at 1uM” value was -1.29%.

As for `C=C(c1ccccc1Cl)[n+]1ccccc1.F[B-](F)(F)F`, the “hERG current change (%, negative = inhibition) at 1uM” value came to 17.5%.

Regarding `C=CCNc1sc(C(=O)c2ccccc2)c(N)c1C#N`, the “hERG current change (%, negative = inhibition) at 1uM” value worked out at 9.87%.

For the molecule `COc1ccc(CCNc2nc(=S)[nH]c3cc(OC)c(OC)cc23)cc1OC`, the “hERG current change (%, negative = inhibition) at 1uM” value is 9.76%.

With `O=C(O)CCSc1nnc(-c2cccnc2)n1-c1ccccc1`, the “hERG current change (%, negative = inhibition) at 1uM” value is recorded as 10.5%.

`O=C1CN(C(=O)CC2c3ccccc3-c3ccccc32)CC(=O)N1`: the “hERG current change (%, negative = inhibition) at 1uM” value is listed as 5.63%.
